Test results reported in article PMC12136788.
The list shows a part of the results.

T1: UNK ZnF1-3 (human, UniProt Q9C0B0 31-174)
T1 sequence: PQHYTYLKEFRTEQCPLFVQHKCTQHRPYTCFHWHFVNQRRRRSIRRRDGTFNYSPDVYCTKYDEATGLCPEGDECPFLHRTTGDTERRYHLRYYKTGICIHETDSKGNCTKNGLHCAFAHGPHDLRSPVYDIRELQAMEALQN

B1: chr22:32879901:32879902:+_ENSG00000100225_ENST00000397426|hu_hu|motif|central (ssRNA)
RNA: GGGAGUUCUACAGUCCGACGAUCCUCUGCCAUAUGCGCAUUAUCUUGAAUUGACUCAGCUUCAAAAUUUUGACUAGGCCCGGACAUACUGUCGUCAUUCCAAACACCAGACUGGGCUGCCUGUCCUUGGAAUGAAUCACUUGGCAACAGAGGAUUGAGCAUCA
B2: 125631435_125631555_1209_CDS_ENSG00000151458_ENST00000504087|human|control|control (ssRNA)
RNA: GGGAGUUCUACAGUCCGACGAUCUCCUACCAACAACACACCCCAGGCAGCUCCCUUUCCAGAGACACCACUAGCAUUAUUCCCAGAAUUCAUUACAAGUGAUGGUGCAUUGACAGCACUAUUGCAGCAGUUACUUUUCUCCUGCAACAGAGGAUUGAGCAUCA
B3: 184244383_184244503_3702_3pUTR_ENSMUSG00000047539_ENSMUST00000051431|mouse|control|control (ssRNA)
RNA: GGGAGUUCUACAGUCCGACGAUCUACCAAAAAAAAUGUCAACUUGGACCAGUGGCUUUCGACAUGGGGCACCCAAAUAGUCUUCACAACAGGAGUUAAUGGCCCCCUUGCCUCCAGGCUCUCUCUACAUCACAAGGGGAGUUUCAACAGAGGAUUGAGCAUCA
B4: chr11:87793471:87793472:-_ENSMUSG00000020483_ENSMUST00000020775|mus_mus|mus_mus_mus_hu_False|98_108 (ssRNA)
RNA: GGGAGUUCUACAGUCCGACGAUCUGGGGGCUGGGGAAAAAAAAAUAGCUGGAUCCCCCACCCCCCCACAUUGUCAACCCUACACGAGAGUUUUGAAGGCGACUCAUGAAAAUCAGCAGCUCAAACGGCAAUGACCACCCCACCCAACAGAGGAUUGAGCAUCA
B5: chr8:28385162:28385163:+_ENSG00000104290_ENST00000537916|hu_hu|motif|central (ssRNA)
RNA: GGGAGUUCUACAGUCCGACGAUCGUGAAACAGCAAUGCUUUCUUCUCAAUAGCUUCACUACCCCACUUUGGCACAGCUGCGGAAAACCAUGUGAUGGUAAGAAUUACCCACCAUACACUGCCAGCCAUAGUAAAAAAAUAGAGCAACAGAGGAUUGAGCAUCA
B6: chr16:13687521:13687522:+_ENSMUSG00000022684_ENSMUST00000023365|mus_mus|motif|central (ssRNA)
RNA: GGGAGUUCUACAGUCCGACGAUCGGCUGCAAGACUUUGGACUACAUCAUUAUUCUGCUGAAUGUCUUCAACUCGCAUUCGGAUGGCAUCAGGAAAUAACUUUUCAAUGGCAUCCCUGAGGAGAAUGUUGACUUUAGGAAAACCCAACAGAGGAUUGAGCAUCA
B7: chr2:198365819:198365820:+_ENSG00000115541_ENST00000409468|hu_mus|FALSE|FALSE (ssRNA)
RNA: GGGAGUUCUACAGUCCGACGAUCAGUUUCGGCAGCACUCCUUUCAACCAAUACUCUGUCAAAGAGCGGAAGAAACUUCCUAAAAGCUUGUCCAGCCAUGACUCUCGCCUUCGCCGCCACCACCGCAGCUCCGGACUCUGAACUCAACAGAGGAUUGAGCAUCA
B8: chr10:57943292:57943293:+_ENSMUSG00000003226_ENSMUST00000003310|mus_mus|FALSE|FALSE (ssRNA)
RNA: GGGAGUUCUACAGUCCGACGAUCCAAAGAACCAGUGGCUGAACUGUUGCCAAAUGCAAAUGGCUUGGAUUUUUCACUACUAAAAAUGCUUUUAACAGAUUCUGAGCCAAAUACAAACUUAGGAGGAGAAACUACUGCUUUUGGCAACAGAGGAUUGAGCAUCA
B9: chrX:148438211:148438212:+_ENSMUSG00000025260_ENSMUST00000026289|mus_mus|FALSE|FALSE (ssRNA)
RNA: GGGAGUUCUACAGUCCGACGAUCGUCUGGUUCAUUCUGGCCCAUCUCCCCAGCAACCAGGCGGAUCACAUUGAAAGUGCCUAUAAGAUUCACAUUGAUAACCCGCUGGAAGUCCUCCAAAGUAUGGAUCUUGUUCUUCUUUUGCAACAGAGGAUUGAGCAUCA
B10: chr8:74858975:74858976:-_ENSG00000154582_ENST00000284811|hu_mus|hu_hu_hu_mus_True|18_48 (ssRNA)
RNA: GGGAGUUCUACAGUCCGACGAUCGACCUUGUAGGUAAAAUACAUGCACACUUUUGAUAGCACAUGUGAGGGGAUCUCUCUAAAAUUGACCUCAUUGGUUUCAUUCUCAGCAAACUGACCUGGGCCACUCAACAUAGCCUUUAUCAACAGAGGAUUGAGCAUCA
B11: chr10:118639881:118639882:-_ENSMUSG00000020114_ENSMUST00000020315|mus_mus|FALSE|FALSE (ssRNA)
RNA: GGGAGUUCUACAGUCCGACGAUCAACAUCAGUGGCUUUACAACCUCUGGCUUAUGGAAAUACAGACUUCUGAAGUAAAAGCUACAAAAACAACAAUGGAAGAAAGCCAAACAAACUUCCCGGGAAGGAAAGUAAAGUGGAACACAACAGAGGAUUGAGCAUCA
B12: 57333846_57335874_124_CDS_ENSG00000174780_ENST00000510663|human|control|control (ssRNA)
RNA: GGGAGUUCUACAGUCCGACGAUCAAGGCAUACCACUUUACAAUGCAGGGCAGUUACGUCAUCUUUGUUGAUCUGUAGUAUCUUAUUGACGGUCUUGAGAGCGCGCGUGAAGUCGCCGUUCUGGCCAUACCGGUUCACUUCACUCAACAGAGGAUUGAGCAUCA
B13: chr4:103717771:103717772:-_ENSG00000109332_ENST00000394803|hu_hu|motif|central (ssRNA)
RNA: GGGAGUUCUACAGUCCGACGAUCUCCAGGCAGCUAACUCAUUGGUUUAUGCAACUUUAUUGAAGAAAAAUAAAUCAAUUACGGGCAGAGCUAUUAGUUGAUCACUCAUCCAUUGACAACUUGCAUCAUUUAUUCAGUGCUAUACAACAGAGGAUUGAGCAUCA
B14: 110045949_110064326_450_3pUTR_ENSG00000119318_ENST00000358015|human|control|control (ssRNA)
RNA: GGGAGUUCUACAGUCCGACGAUCGAGGAUUUUGCCUGCAUAAAUUAAUUUUUGACCUGCUACUGGAAAGGCAUCUUUCCCCUUUUCAGAUUCAAUCUUCUCUUUCAGUGCUUUCACCGUCUCCUCGGGGUCAAUGUCUAUCUUCAACAGAGGAUUGAGCAUCA

molecular target: T1, UNK ZnF1-3; experiment: nsRBNS (natural sequence RNA bind-n-seq); RBNS binding buffer (assumed for nsRBNS): 25 mM Tris pH 7.5, 150 mM KCl, 3 mM MgCl2, 0.01% Triton X-100, 500 ug/ml BSA, 20 U/ml SUPERase-In, 4 C; UNK is unkempt and MSI1 is Musashi-1; names of the RNAs are library labels; protein concentration not given here; high values mean tight binding

Binder | binding signal
B1 | 0.775 enrichment R
B2 | 1.22 enrichment R
B3 | 1.54 enrichment R
B4 | 2.05 enrichment R
B5 | 1.87 enrichment R
B6 | 1.42 enrichment R
B7 | 1.17 enrichment R
B8 | 1.62 enrichment R
B9 | 0.797 enrichment R
B10 | 0.699 enrichment R
B11 | 1.57 enrichment R
B12 | 0.568 enrichment R
B13 | 1.32 enrichment R
B14 | 0.579 enrichment R
